Molecules are shown by their SMILES. Hit rate of the full screen: of about 310,000 compounds, about 2,200 (0.71%) showed an effect of 50% or more. Effects have a minus sign here. The list shows a part of the results.

For the test, the target named is human ether-à-go-go-related gene (hERG) potassium channel (human, UniProt Q12809). Put plainly: primary screen, population patch clamp on CHO cells stably expressing hERG.
human ether-à-go-go-related gene (hERG) potassium channel, sequence (Q12809 whole entry, looked up): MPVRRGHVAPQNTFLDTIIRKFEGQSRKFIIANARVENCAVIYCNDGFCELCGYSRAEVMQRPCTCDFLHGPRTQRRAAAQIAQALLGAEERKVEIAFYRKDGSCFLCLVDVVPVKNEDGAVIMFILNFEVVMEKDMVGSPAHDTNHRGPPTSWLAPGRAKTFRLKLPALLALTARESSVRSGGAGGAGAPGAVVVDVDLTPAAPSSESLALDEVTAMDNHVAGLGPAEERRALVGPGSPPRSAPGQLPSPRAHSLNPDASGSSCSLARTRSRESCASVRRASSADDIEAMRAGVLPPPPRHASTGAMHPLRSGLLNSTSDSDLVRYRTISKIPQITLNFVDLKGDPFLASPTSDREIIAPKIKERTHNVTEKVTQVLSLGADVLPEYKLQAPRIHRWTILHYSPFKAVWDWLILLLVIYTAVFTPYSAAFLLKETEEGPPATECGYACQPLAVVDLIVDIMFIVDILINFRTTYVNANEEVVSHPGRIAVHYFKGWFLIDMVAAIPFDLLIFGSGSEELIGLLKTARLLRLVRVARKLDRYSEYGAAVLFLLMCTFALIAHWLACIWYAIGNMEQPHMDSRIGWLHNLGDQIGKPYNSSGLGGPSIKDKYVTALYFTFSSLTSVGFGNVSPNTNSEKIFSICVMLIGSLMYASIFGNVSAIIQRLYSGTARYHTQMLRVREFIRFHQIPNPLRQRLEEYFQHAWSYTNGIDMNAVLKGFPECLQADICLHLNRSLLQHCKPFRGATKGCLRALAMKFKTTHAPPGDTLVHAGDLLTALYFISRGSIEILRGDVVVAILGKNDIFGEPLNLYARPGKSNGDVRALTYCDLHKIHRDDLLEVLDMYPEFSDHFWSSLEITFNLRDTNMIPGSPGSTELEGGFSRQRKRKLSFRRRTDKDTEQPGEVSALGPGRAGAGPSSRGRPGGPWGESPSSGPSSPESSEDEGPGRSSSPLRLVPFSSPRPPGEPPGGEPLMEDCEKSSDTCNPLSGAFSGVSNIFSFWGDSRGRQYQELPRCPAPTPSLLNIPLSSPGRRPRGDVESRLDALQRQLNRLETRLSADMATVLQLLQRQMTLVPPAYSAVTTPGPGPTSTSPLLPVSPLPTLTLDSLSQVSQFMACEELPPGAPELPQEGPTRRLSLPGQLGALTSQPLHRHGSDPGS
`Cc1nc(NC(=S)NC(=O)c2ccccc2)sc1C`: the “hERG current change (%, negative = inhibition) at 1uM” value turned out to be 6%.

For `CC(OC(=O)c1ccc2ncsc2c1)C(=O)NCc1ccccc1` (stereo not shown), the “hERG current change (%, negative = inhibition) at 1uM” value came out at 9.98%.

With `COC(=O)c1ccc(COC(=O)c2nn(C)c(=O)c3ccccc23)cc1`, the “hERG current change (%, negative = inhibition) at 1uM” value is 20.7%.

Take `CC1NC(=O)NC1CCCCCC(=O)NCCc1ccccc1` (stereo not shown): the “hERG current change (%, negative = inhibition) at 1uM” value stood at 5.54%.

Turning to `COc1ccc(CC(=O)NC(=S)Nc2ccc(S(=O)(=O)NC(C)(C)C)cc2)cc1`, the “hERG current change (%, negative = inhibition) at 1uM” value was determined as 16.8%.

`O=C(CCCNC(=O)c1ccc(Cl)cc1)Nc1ccc(Br)cc1`: the “hERG current change (%, negative = inhibition) at 1uM” value came to 10.1%.

Take `COc1ccc(NC(=O)CSCC(=O)N2CCCc3ccccc32)cc1`: the “hERG current change (%, negative = inhibition) at 1uM” value was 17.3%.

Regarding `O=C(NCCSCc1ccccc1)c1ccccc1`, the “hERG current change (%, negative = inhibition) at 1uM” value is on record as 5.61%.

As to `CN(C(=O)CSc1nncn1-c1ccccc1)c1ccccc1`, the “hERG current change (%, negative = inhibition) at 1uM” value was determined as 10.5%.

`N#Cc1ccccc1CSc1nc2ccc(NC(=O)c3ccccc3C(=O)O)cc2s1`: the “hERG current change (%, negative = inhibition) at 1uM” value is 12.7%.

For the molecule `C[C@@H](C(=O)NCc1ccccc1)[C@H]1C[C@]1(C)[C@H](NC(=O)OCc1ccccc1)c1ccccc1`, the “hERG current change (%, negative = inhibition) at 1uM” value stood at 9.74%.

With `Cc1ccc2c(CN3C(=O)NC(C)(c4ccc5c(c4)OCO5)C3=O)cc(=O)oc2c1` (stereo not shown), the “hERG current change (%, negative = inhibition) at 1uM” value worked out at 8.31%.

Take `Cc1ccc(NC(=O)[C@@H]2CCCN2S(=O)(=O)c2ccccc2F)cc1`: the “hERG current change (%, negative = inhibition) at 1uM” value came to 9.97%.

As for `Cc1ccc(C(=O)N/N=C\c2ccc(-c3ccc(Cl)c(Cl)c3)o2)cn1`, the “hERG current change (%, negative = inhibition) at 1uM” value is -10.3%.

Turning to `Cc1ccc(CNC(=O)c2c(-c3ccccc3Cl)noc2C)cc1`, the “hERG current change (%, negative = inhibition) at 1uM” value came out at 16%.

Turning to `CCC1S/C(=N/N=C/c2ccco2)N(Cc2ccc(F)cc2)C1=O` (stereo not shown), the “hERG current change (%, negative = inhibition) at 1uM” value stood at 10.2%.

As to `Cc1cc(NC(=O)Nc2ccc(Cl)cc2)no1`, the “hERG current change (%, negative = inhibition) at 1uM” value stood at 11.7%.

Consider `COc1ccccc1-n1nnnc1SCc1cc2c(cc1Br)OCO2`, for which the “hERG current change (%, negative = inhibition) at 1uM” value was -7.61%.

Consider `CCC(NC(=S)NCc1ccccc1)C(=O)O` (stereo not shown), for which the “hERG current change (%, negative = inhibition) at 1uM” value is reported as 15.2%.

For the molecule `CCC1CCCCN1C(=O)CSc1nnc(CNC(=O)COc2ccc(Cl)cc2)o1` (stereo not shown), the “hERG current change (%, negative = inhibition) at 1uM” value is recorded as 0.44%.

`COC(=O)c1[nH]c2cccc(OC)c2c1NC(=O)CN1CCC(C(N)=O)(N2CCCCC2)CC1`: the “hERG current change (%, negative = inhibition) at 1uM” value was found to be 6.17%.

In the case of `O=C(NS(=O)(=O)c1ccccc1)c1cccc(Br)c1`, the “hERG current change (%, negative = inhibition) at 1uM” value came out at 14.9%.

Regarding `CCCCSc1nc2c(cnn2-c2ccc(C)c(C)c2)c(=O)[nH]1`, the “hERG current change (%, negative = inhibition) at 1uM” value was 5.85%.

Consider `CCOC(=O)/C(=N\Nc1ccccc1Cl)N(C)C1CCCCC1`, for which the “hERG current change (%, negative = inhibition) at 1uM” value is reported as 7.91%.

As for `CN(CC(=O)Nc1ccc(F)cc1)C(=O)COc1ccc([N+](=O)[O-])cc1Cl`, the “hERG current change (%, negative = inhibition) at 1uM” value is listed as -12%.

Turning to `CCN=C1SC(C(=O)Nc2cccc(Br)c2)CC(=O)N1CC` (stereo not shown), the “hERG current change (%, negative = inhibition) at 1uM” value amounted to 11.2%.

Consider `COc1cccc(NC(=O)N2CCCC2C(=O)NC(C)C)c1` (stereo not shown), for which the “hERG current change (%, negative = inhibition) at 1uM” value came to 14.5%.

For `COc1ccc(N(C(=O)COc2cccc(C)c2)S(=O)(=O)c2ccc(C)cc2)cc1`, the “hERG current change (%, negative = inhibition) at 1uM” value is 4.79%.

For the molecule `CCOC(=O)C1C(=O)NC(N2CCc3ccccc32)=NC1c1ccccc1` (stereo not shown), the “hERG current change (%, negative = inhibition) at 1uM” value is given as 5.25%.

Regarding `Cc1ccc(-c2nnc(Nc3ccc(OCC(N)=O)cc3)c3ccccc23)cc1S(N)(=O)=O`, the “hERG current change (%, negative = inhibition) at 1uM” value is listed as 2.73%.

For `CCOC(=O)CC1Sc2ccccc2NC1=O` (stereo not shown), the “hERG current change (%, negative = inhibition) at 1uM” value is -7.75%.

Regarding `Cc1ccc(S(=O)(=O)CC(O)COc2ccccc2C#N)cc1` (stereo not shown), the “hERG current change (%, negative = inhibition) at 1uM” value is 13.7%.

Take `CN(C)CCNc1ncnc2oc(-c3ccccc3)c(-c3ccccc3)c12`: the “hERG current change (%, negative = inhibition) at 1uM” value is -10.4%.

As for `Nc1nnc(CCOc2ccccc2Cl)s1`, the “hERG current change (%, negative = inhibition) at 1uM” value was 9.1%.

On to `CCOCCCNC(=O)c1c(N)n(-c2ccc3c(c2)OCO3)c2nc3ccccc3nc12`, for which the “hERG current change (%, negative = inhibition) at 1uM” value is on record as 4.66%.

As to `Cc1cc(NC(=O)CSCC(=O)N(C)Cc2c(F)cccc2Cl)no1`, the “hERG current change (%, negative = inhibition) at 1uM” value is given as 12.7%.

Consider `CC1=C(n2nnc3ccccc32)C(c2ccccc2)C(C#N)=C(N)O1` (stereo not shown), for which the “hERG current change (%, negative = inhibition) at 1uM” value was 3.29%.

With `CCOC(=O)Cn1cc(/C=N/N2C(=O)C3C4C=CC(C4)C3C2=O)c2ccccc21` (stereo not shown), the “hERG current change (%, negative = inhibition) at 1uM” value stood at 1.5%.

As for `Cc1cc2c(ncn2C)c(NS(=O)(=O)c2ccc(Cl)cc2)c1C`, the “hERG current change (%, negative = inhibition) at 1uM” value was determined as 9.08%.

For the molecule `Cc1cc(C(=O)Nc2ccccc2C)on1`, the “hERG current change (%, negative = inhibition) at 1uM” value came out at 7.46%.

As to `O=C(NNS(=O)(=O)c1ccc(F)cc1)c1ccc([N+](=O)[O-])cc1Cl`, the “hERG current change (%, negative = inhibition) at 1uM” value worked out at 9.93%.

As to `COc1cccc(N2C(=O)CC(=O)NC2=O)c1`, the “hERG current change (%, negative = inhibition) at 1uM” value is recorded as -1.31%.

For `Cc1cc(C)c2[nH]c3nc(SCC(=O)O)nnc3c2c1`, the “hERG current change (%, negative = inhibition) at 1uM” value is on record as 16.7%.

In the case of `O=C(c1cc2cc(Cl)cc(Cl)c2oc1=O)N1CCOCC1`, the “hERG current change (%, negative = inhibition) at 1uM” value worked out at 9.66%.

With `Cc1cccc(OCc2nnc(SCC(=O)NCCc3ccccc3)o2)c1`, the “hERG current change (%, negative = inhibition) at 1uM” value came out at 7.5%.

As for `Nc1nnc(CSCc2cccc(Br)c2)s1`, the “hERG current change (%, negative = inhibition) at 1uM” value is reported as 4.42%.
